Experimental data: PubChem BioAssay AID686978 (National Center for Advancing Translational Sciences (NCATS), 2013)
Several values for one entry are separate records, joined by “and”; a condition that tells them apart may be missing. Identical values can stand only once. The whole screen tested about 420,000 compounds, of which about 64,000 (15%) were called active. The inconclusive results got no clear call from the source; some entries with a clear call stand among them for comparison. Calls follow the shape of the dose curve; as a rule, active = well fitted inhibition curve with a large enough effect; inconclusive = small, poorly fitted or top-dose-only effect; inactive = flat fitted curve, though single readings scatter. Potencies of inconclusive entries are doubtful fits and often do not repeat.

Experiment: qHTS for Inhibitors of human tyrosyl-DNA phosphodiesterase 1 (TDP1): qHTS in cells in absence of CPT; also: nearly all actives have a fitted effect of over 55% in size
Conditions: DT40 Tdp1-/- hTDP1 cells, no CPT, ATP luminescence, 48 h; activity change, negative = growth inhibition: at 46.2 µM (top of the series) unless noted
Procedure, shortened: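 Growth of hTDP1-complemented DT40 Tdp1-knockout cells is measured by ATP luminescence after at least 48 hr compound exposure at 37 °C, with DMSO substituting for the 20 nM CPT used in the parallel screen.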
% is scaled to controls: 0 for no effect and ±100 for the full control effect; potency is read from the fitted curve at half-maximal effect; tags tell the direction and shape of the fitted curve.

**Q.** For `COc1ccc(N2CCN(C(=O)CN(c3ccc(Br)cc3)S(C)(=O)=O)CC2)cc1`, which Potency is on record?
**A.** inconclusive: 14.6 µM [inhibitor, single point]

**Q.** Which Potency does the source give for `CC(C)(C)c1ccc(C(=O)NCCNC(=O)c2ccco2)cc1` here?
**A.** inactive

**Q.** With `CN(C)/C=C1\N=C(c2cccnc2Oc2ccc(Cl)cc2)OC1=O` as the compound, how does the Potency read?
**A.** inconclusive: 16.4 µM [inhibitor, partial curve]

**Q.** Which Potency does the source give for `C=CCOc1ccc(/C=C/C(=O)OCC(=O)N2CCN(S(=O)(=O)c3ccc(C)cc3C)CC2)cc1` here?
**A.** active: 7.31 µM

**Q.** For `COCCN(C(=S)Nc1cc(C)cc(C)c1)C(C)c1cccnc1` (centres undefined), which Potency is on record?
**A.** inconclusive: 11.6 µM [inhibitor, partial curve]

**Q.** With `CCc1ccccc1S(=O)(=O)Cc1ccc(C(=O)NCc2ccc3c(c2)OCO3)o1` as the compound, how does the Potency read?
**A.** inconclusive: 14.6 µM [inhibitor, single point]

**Q.** For `CCCN(C(=O)c1cc(S(=O)(=O)N2CCc3ccccc32)cn1C)c1ccc(OCC)cc1`, which Potency is on record?
**A.** active: 20.6 µM

**Q.** With `COc1ccccc1-c1nnc2sc(COc3ccc(Cl)cc3)nn12` as the compound, how does the Potency read?
**A.** active: 16.4 µM

**Q.** For `O=C(CCNc1cccc(Cl)c1)c1ccco1`, which Potency is on record?
**A.** active: 8.2 µM

**Q.** For `N#Cc1ccccc1OCC(=O)N1CCN(S(=O)(=O)c2ccc(Cl)cc2)CC1`, which Potency is on record?
**A.** inconclusive: 29.1 µM [inhibitor, single point]

**Q.** Which Potency does the source give for `O=C(NC1CCCN(Cc2ccc(Cl)cc2)C1)c1ccccc1C(F)(F)F` (centres undefined) here?
**A.** inconclusive: 29.1 µM [inhibitor, single point]

**Q.** With `CCOC(=O)c1c(C)[nH]c2c1cc(O)c1ccccc12` as the compound, how does the Potency read?
**A.** inconclusive: 25.9 µM [inhibitor, partial curve]

**Q.** With `N/N=C/C(=N\Nc1ccc(Cl)cc1)C(=O)c1ccncc1` as the compound, how does the Potency read?
**A.** inactive

**Q.** With `CCOc1ccc(C2C(C(=O)Nc3ccccc3)=C(C)Nc3nc(-c4ccccc4Cl)nn32)cc1OC` (centres undefined) as the compound, how does the Potency read?
**A.** active: 18.4 µM

**Q.** Which activity change, negative = growth inhibition does the source give for `CCCn1cnc2cc(NCc3cccc(OC)c3)ccc21` here?
**A.** inconclusive: -33.6% [inhibitor]

**Q.** For `COc1ccc(CNC(=O)Cn2c(=O)oc3cc(S(=O)(=O)NCc4ccccc4)ccc32)cc1`, which Potency is on record?
**A.** inconclusive: 4.61 µM [inhibitor, full curve]

**Q.** For `Cc1ccc(-n2cc(CNCCn3nc(C)cc3C)c(-c3ccc(F)cc3)n2)cc1`, which Potency is on record?
**A.** active: 23.1 µM

**Q.** Which Potency does the source give for `Cc1ccc(-c2nn(-c3cccc(F)c3)cc2CNCc2cccnc2)o1` here?
**A.** inconclusive: 29.1 µM [inhibitor, single point]

**Q.** For `CCOC(=O)N1CCC(N2Cc3cccc(C(=O)Nc4ccc(OC)c(OC)c4)c3C2=O)CC1`, which Potency is on record?
**A.** inconclusive: 29.1 µM [inhibitor, single point]

**Q.** Which Potency does the source give for `O=C(Nc1nc(-c2cccnc2)cs1)c1ccc(S(=O)(=O)N2CCOCC2)cc1` here?
**A.** inconclusive: 20.6 µM [inhibitor, partial curve]

**Q.** With `Cc1ccccc1NC(=O)C(=O)NCC(c1ccc2c(c1)OCO2)N1CCN(c2ccccc2)CC1` (centres undefined) as the compound, how does the Potency read?
**A.** inconclusive: 18.4 µM [inhibitor, single point]

**Q.** With `Cc1ccccc1NC(=O)Cn1cc(S(=O)(=O)c2ccccc2)c(=O)c2ccccc21` as the compound, how does the Potency read?
**A.** inactive

**Q.** Which Potency does the source give for `COC(=O)[C@]12CCCCC=C1N(Cc1ccccc1)C(=O)[C@H](CC(=O)N1CCOCC1)C2` here?
**A.** inactive

**Q.** With `O=C(O)c1cc(=O)c2ccc(Cl)cc2[nH]1` as the compound, how does the Potency read?
**A.** inactive

**Q.** With `CCc1nc2c(OCC3CCCCC3)cccn2c1N(C=O)Cc1ccc(OC)cc1` as the compound, how does the Potency read?
**A.** active: 20.6 µM

**Q.** With `COCC(C)n1c(SCc2ccc(OC)c(F)c2)nc2ccccc2c1=O` (centres undefined) as the compound, how does the Potency read?
**A.** active: 4.11 µM

**Q.** For `CC1CCN(C2=NC(=O)/C(=C/c3ccc(O)cc3)S2)CC1`, which Potency is on record?
**A.** inconclusive: 16.4 µM [inhibitor, single point]

**Q.** Which Potency does the source give for `O=C(Nc1ccc(S(=O)(=O)N2CCc3ccccc32)cc1)C(F)(F)F` here?
**A.** inconclusive: 29.1 µM [inhibitor, single point]

**Q.** Which Potency does the source give for `COc1ccc2ccccc2c1C1CC(=O)N2CN(Cc3ccco3)CSC2=C1C#N` (centres undefined) here?
**A.** inconclusive: 29.1 µM [inhibitor, single point]

**Q.** With `COc1ccc(NC(=O)c2cc3c(-c4ccccc4F)nn(C)c3s2)c(OC)c1` as the compound, how does the Potency read?
**A.** active: 10.3 µM

**Q.** For `C=CCN(C(=O)CSc1nc2[nH]ncc2c(=O)n1-c1ccccc1OC)c1ccccc1`, which Potency is on record?
**A.** inactive

**Q.** Which Potency does the source give for `CCOc1ccc(Nc2cc(C)nc3nncn23)cc1` here?
**A.** inactive

**Q.** With `COc1cc2c(cc1OC)CN(CC(=O)Nc1ccc(C)c(C)c1)CC2` as the compound, how does the Potency read?
**A.** inactive

**Q.** With `Cc1ccc(S(=O)(=O)N2CCOC23CCN(C(=O)c2cc(Cl)ccc2Cl)CC3)cc1` as the compound, how does the Potency read?
**A.** inconclusive: 29.1 µM [inhibitor, single point]

**Q.** For `CC1=C/C(=N\NC(=O)c2cccs2)CC(C)(C)C1`, which Potency is on record?
**A.** inactive

**Q.** For `O=C(NC1=NCCS1)c1ccc(Cl)c(S(=O)(=O)N2CCCCC2)c1`, which Potency is on record?
**A.** inconclusive: 13 µM [inhibitor, partial curve]

**Q.** With `O=C(NCCSc1c[nH]c2ccccc12)c1ccc(Br)o1` as the compound, how does the Potency read?
**A.** inconclusive: 29.1 µM [inhibitor, single point]

**Q.** For `CCN1CCN(Cc2c(O)ccc3oc(C)c(C(=O)Nc4cccc(Cl)c4C)c23)CC1`, which Potency is on record?
**A.** active: 20.6 µM

**Q.** With `NS(=O)(=O)c1ccc(CCNC(=O)c2nc(CS(=O)(=O)c3ccc(Cl)cc3)no2)cc1` as the compound, how does the Potency read?
**A.** inactive

**Q.** With `Cc1nn(-c2ccc(F)cc2)c2nc(N)c(C#N)c(-c3cccs3)c12` as the compound, how does the Potency read?
**A.** active: 13 µM

**Q.** With `COc1ccc(NC(=O)CSc2n[nH]c(-c3ccncc3)n2)cc1Cl` as the compound, how does the Potency read?
**A.** inconclusive: 18.4 µM [inhibitor, single point]

**Q.** With `O=C(Nc1ccccc1)c1cccc(S(=O)(=O)NC2CCCC2)c1` as the compound, how does the Potency read?
**A.** inconclusive: 29.1 µM [inhibitor, single point]

**Q.** For `Cc1cc2c(cn1)C(CCC#N)(CCC#N)c1ccccc1-2`, which Potency is on record?
**A.** inactive

**Q.** With `CCCn1c2ccccc2c2cnn(CC(=O)NCCCN3CCCCC3CC)c(=O)c21` (centres undefined) as the compound, how does the Potency read?
**A.** inactive and inconclusive: 29.1 µM [inhibitor, single point]

**Q.** Which Potency does the source give for `O=C(C(=O)N1CCC(Cc2ccccc2)CC1)c1cccs1` here?
**A.** inactive

**Q.** For `CCc1cccc(NS(=O)(=O)c2ccc3c(c2)NC(=O)CO3)c1`, which Potency is on record?
**A.** inactive

**Q.** Which Potency does the source give for `CCC(C)NC(=O)c1cc(Sc2cccc(Cl)c2)nc2ccccc12` (centres undefined) here?
**A.** active: 14.6 µM

**Q.** Which Potency does the source give for `CC1(C)CC(=O)C2=C(C1)NC(=S)C(C#N)C21CCCCC1` (centres undefined) here?
**A.** inactive

**Q.** For `COc1ccc(NC(=O)c2ccc(NC(=O)CN3CCN(c4ccccc4OC)CC3)cc2)cc1`, which Potency is on record?
**A.** active: 18.4 µM

**Q.** With `COC(=O)CSc1nc2nc(-c3cccs3)cc(C(F)(F)F)c2c(=O)[nH]1` as the compound, how does the Potency read?
**A.** inactive

**Q.** Which Potency does the source give for `O=C(CSc1nc2ccccc2nc1N1CCCC1)Nc1ccc(F)cc1` here?
**A.** inconclusive: 25.9 µM [inhibitor, single point]

**Q.** For `Cc1ccc(S(=O)(=O)N(C)c2ccc(C)c([N+](=O)[O-])c2)cc1`, which Potency is on record?
**A.** inconclusive: 29.1 µM [inhibitor, single point]

**Q.** For `COC(C[C@H](O)[C@H](C)[C@@H](O)COCc1ccccc1)OC`, which Potency is on record?
**A.** inactive

**Q.** Which Potency does the source give for `Cc1ccc(-c2ccc(SCC(=O)NC3CCCC3)nn2)cc1` here?
**A.** inconclusive: 23.1 µM [inhibitor, single point]

**Q.** For `CCOc1ccc(N(C)C(=O)c2oc(=O)c3ccccc3c2-c2ccccc2)cc1`, which Potency is on record?
**A.** active: 14.6 µM

**Q.** With `CCc1ccc(-c2nc(CS(=O)CC(=O)NCCc3ccc(C)cc3)c(C)o2)cc1` (centres undefined) as the compound, how does the Potency read?
**A.** inconclusive: 29.1 µM [inhibitor, single point]

**Q.** For `Cc1cc(C)cc(NC(=O)CSc2nnc(-c3ccccc3C)o2)c1`, which Potency is on record?
**A.** inactive

**Q.** For `COCc1cc(=O)n2[nH]c(-c3ccccc3)cc2n1`, which Potency is on record?
**A.** inactive

**Q.** With `COc1ccc(N2CCN(C(=O)CCCOc3cc(=O)n(C)c4ccccc34)CC2)cc1` as the compound, how does the Potency read?
**A.** inconclusive: 20.6 µM [inhibitor, single point]

**Q.** With `Cc1ccc2c(CN3CCC(C)CC3)cc(=O)oc2c1C` as the compound, how does the Potency read?
**A.** inconclusive: 29.1 µM [inhibitor, single point]

**Q.** With `Cc1c(C(=O)Nc2ccccc2)sc2nc(-c3ccccc3)cn12` as the compound, how does the Potency read?
**A.** inconclusive: 18.4 µM [inhibitor, single point]

**Q.** For `O=c1[nH]c(SCc2nc3ccccc3c(=O)n2-c2ccccc2)nc2ccccc12`, which Potency is on record?
**A.** inconclusive: 29.1 µM [inhibitor, single point]

**Q.** Which Potency does the source give for `Cc1ccsc1C(=O)N1CCC1(C)C(=O)NS(=O)(=O)c1ccccc1` (centres undefined) here?
**A.** inactive

**Q.** With `CN(Cc1cn(-c2ccccc2)nc1-c1ccc(Cl)cc1)C(=O)CCC(=O)O` as the compound, how does the Potency read?
**A.** inactive

**Q.** With `CC1(C)Cc2c(sc3nc(NCCN4CCOCC4)n4ncnc4c23)CO1` as the compound, how does the activity change, negative = growth inhibition read?
**A.** inconclusive: -34.7% [inhibitor]

**Q.** Which Potency does the source give for `COCCCNC(=S)Nc1ccc2nc(N3CCOCC3)cc(C)c2c1` here?
**A.** inconclusive: 25.9 µM [inhibitor, single point]

**Q.** With `COc1cc(CNC(=O)c2cc(C(=O)NCc3cc(OC)cc(OC)c3)n(C)n2)cc(OC)c1` as the compound, how does the Potency read?
**A.** inconclusive: 32.6 µM [inhibitor, single point]

**Q.** For `COc1cccc(CNCc2ccc(OC)cc2OC)c1`, which Potency is on record?
**A.** inconclusive: 29.1 µM [inhibitor, single point]

**Q.** Which Potency does the source give for `N#Cc1c(N)sc(=S)c2c1CCCC2` here?
**A.** inconclusive: 2.91 µM [inhibitor, partial curve, poor fit]

**Q.** For `Cc1ccc(OCCn2cnc3c2c(=O)n(C)c(=O)n3C)cc1`, which Potency is on record?
**A.** inconclusive: 8.2 µM [inhibitor, partial curve, poor fit]

**Q.** Which Potency does the source give for `CC(C)c1cnc2c(c1SCC(=O)NC(C)(C)C)c(=O)n(C)c(=O)n2C` here?
**A.** inactive

**Q.** With `Cc1ccccc1N(C(=O)c1snc(C(N)=O)c1N)C(C(=O)NC1CCCC1)c1ccco1` (centres undefined) as the compound, how does the Potency read?
**A.** inconclusive: 23.1 µM [inhibitor, single point]

**Q.** With `CN(CC(=O)Nc1ccc(F)cc1)C(=O)CSc1nnc(Cc2ccccc2)o1` as the compound, how does the Potency read?
**A.** inactive

**Q.** Which Potency does the source give for `Cc1ccc(N(CC(=O)N2CCN(c3cc(C)ccc3C)CC2)S(=O)(=O)c2c(C)nn(C)c2C)cc1` here?
**A.** active: 16.4 µM
